In PubChem BioAssay AID1645887 (National Center for Advancing Translational Sciences (NCATS), 2021):
“And” between values parts separate entries of the source, which are not always exact repeats. Equal entries are not always repeated. About 40 (0.2%) of roughly 16,000 compounds were called active. About 1% were inconclusive and are not listed. Calls follow the shape of the dose curve; as a rule, active = well fitted activation curve with a large enough effect; inconclusive = small, poorly fitted or top-dose-only effect, or another doubt; inactive = no such curve, though single readings can be large or run the other way. This is one part of the list.

target: Rap guanine nucleotide exchange factor 4 (Homo sapiens) (UniProt Q8WZA2); assay: Validation qHTS for agonist of cAMP-regulated guanine nucleotide exchange factor 4 (EPAC2); details: EPAC2 Rap1B BODIPY-GDP exchange, fluorescence; activation: stronger effect = higher value;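 also: exchange makes BODIPY-GDP fluorescence drop when released from Rap1B; series mostly up to about 150 µM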
UniProt Q8WZA2, sequence (Q8WZA2 whole entry, looked up): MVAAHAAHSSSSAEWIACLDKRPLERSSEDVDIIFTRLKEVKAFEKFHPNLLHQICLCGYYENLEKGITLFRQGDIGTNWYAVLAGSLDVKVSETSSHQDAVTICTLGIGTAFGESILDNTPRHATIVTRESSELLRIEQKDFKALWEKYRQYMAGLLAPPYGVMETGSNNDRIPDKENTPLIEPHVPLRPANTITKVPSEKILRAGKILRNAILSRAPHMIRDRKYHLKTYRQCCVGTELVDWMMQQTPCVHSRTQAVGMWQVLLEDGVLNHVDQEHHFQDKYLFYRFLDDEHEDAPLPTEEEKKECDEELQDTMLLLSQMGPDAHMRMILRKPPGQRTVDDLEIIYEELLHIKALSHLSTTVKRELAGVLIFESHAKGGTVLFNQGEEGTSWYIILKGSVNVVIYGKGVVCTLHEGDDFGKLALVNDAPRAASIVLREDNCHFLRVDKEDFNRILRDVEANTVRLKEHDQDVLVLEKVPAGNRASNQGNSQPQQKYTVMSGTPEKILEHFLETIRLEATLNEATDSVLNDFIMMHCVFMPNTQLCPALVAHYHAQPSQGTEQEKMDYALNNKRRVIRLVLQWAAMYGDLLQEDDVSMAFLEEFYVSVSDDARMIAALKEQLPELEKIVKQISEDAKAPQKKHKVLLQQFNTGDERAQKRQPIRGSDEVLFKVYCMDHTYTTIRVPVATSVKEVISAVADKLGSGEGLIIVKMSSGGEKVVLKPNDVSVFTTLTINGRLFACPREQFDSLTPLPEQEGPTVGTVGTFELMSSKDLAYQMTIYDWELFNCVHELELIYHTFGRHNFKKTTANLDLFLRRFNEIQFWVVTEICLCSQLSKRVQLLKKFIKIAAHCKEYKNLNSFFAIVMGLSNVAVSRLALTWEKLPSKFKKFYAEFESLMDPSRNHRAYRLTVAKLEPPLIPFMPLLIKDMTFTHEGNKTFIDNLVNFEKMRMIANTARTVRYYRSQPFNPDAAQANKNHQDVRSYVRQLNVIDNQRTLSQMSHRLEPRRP
Procedure, shortened: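 Signal normalized against 6.5 mM cAMP as agonist control. Mix of EPAC2 (100 nM), RAP1B-BODIPY-GDP (250 nM) and GDP (50 uM) was read kinetically at 480/540 nm, every 5 min over 30 min, after 5 min room-temperature incubation with compound.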
% is scaled to controls: 0 for no effect and ±100 for the full control effect.

activation, inactive:
Nc1cc(=O)[nH]c(N)n1 -9.92% and -10.9% and -4.27%
O=C(OOC(=O)c1ccccc1)c1ccccc1 -13.5%
N[C@@H](Cc1c[nH]c2ccccc12)C(=O)O -4.16%
O=C(O)c1nc(=O)[nH]c(=O)[nH]1 -3.25%
Oc1ccc(Cl)cc1CN1CCOc2c(O)cc(-c3nc4ccccc4s3)cc2C1 16.6%
O=C(Nc1ccccc1)[C@@]12C[C@@H]1/C(=N/O)c1ccccc1O2 -6.31%
Cc1cc(C)n(CCC(=O)NCC2Cc3cc(Cl)cc(-c4cnccn4)c3O2)n1 (configuration not stated) -2.98%
NC(=O)CCCCn1ccc(NC(N)=NCC(F)(F)F)n1 -13.8% and -0.296%
Cc1cnc(CNc2ccnc(-c3ccc(N(C)C)cc3)n2)cn1 -19.4%
CC(O)Cn1cnc2c1c(=O)n(C)c(=O)n2C (configuration not stated) -9.81%
NCCCC[C@H](N)C(=O)O -0.0542%
COc1ncc2nc(-c3cccs3)c(=O)n(Cc3ccc(F)cc3)c2n1 4.49%
COc1cccc(Cn2c(=O)c(-c3cn(C)c4ccccc34)nc3cnc(OC)nc32)c1 -7.74%
Cc1ccccc1-c1nc(NC2CCNCC2)c2ccccc2n1 -18%
CC(Oc1ccccc1)C(=O)N[C@@H]1C(=O)N2C(C(=O)O)C(C)(C)S[C@H]12 (some centres not stated) -8.05%
CC(C)NC[C@@H](O)COc1ccc(CC(N)=O)cc1 -18.6%
NS(=O)(=O)c1cc2c(cc1C(F)(F)F)NCNS2(=O)=O 0.685% and -19.1%
CCNc1ncc2nc(-c3ccccc3)c(=O)n(CCC#N)c2n1 -17.7%
C=C1/C(=C\C=C2/CCC[C@]3(C)[C@@H]([C@H](C)OCCC(C)(C)O)CC[C@@H]23)C[C@@H](O)C[C@@H]1O -17.2%
COC1(C2=NCCN2)COc2ccccc2O1 (configuration not stated) -13.3%
O=C(C[n+]1ccccc1)c1cccc([N+](=O)[O-])c1 -12.9%
CO/N=C(\C(=O)N[C@@H]1C(=O)N2C(C(=O)[O-])=C(C[n+]3cccc4c3CCC4)CS[C@H]12)c1csc(N)n1 -11.8%
CCCCCCCC/C=C\CCCCCCCC(N)=O -31.2% and 4.23%
CC(O)(COc1ccccc1)c1ccc2c(c1)CN(Cc1cccc3cccnc13)CCO2 (configuration not stated) -12%
COc1ccccc1N1CCN(CCCCNC(=O)c2ccc(-c3ccc(C(C)=O)cc3)cc2)CC1 -2.58% and 12.3%
NC(=O)CCCCC1CCSS1 (configuration not stated) -11%
CCOC(=O)C1CCCCN1C(=O)c1ccc(-n2cc(NC(=O)c3cccnc3)cn2)cc1 (configuration not stated) -7.49%
CS(=O)(=O)OCCCCOS(C)(=O)=O -26% and -9.31%
COc1cccc(CNC(=O)c2c(OC)cc(=O)n3c2CCN(C(=O)C2CC=CCC2)CC3)c1 (configuration not stated) -16%
O=C(/C=C/c1ccc(O)cc1)c1ccc(O)cc1O 2.18% and -7.17% and -18.5%
COc1ccc(C(=O)N2CCC3(CCN(C)CC3)CC2)cc1 -6.12%
Cc1ccc2[nH]c(C(=O)N3CCc4c(cnc(C)c4CNC(=O)c4ccccc4F)C3)cc2c1 -2.9%
CCCCCCCCC(=O)NCc1cc(OC)c(O)cc1I -54.8%
Cc1c(NC(=O)c2cccnc2)c(=O)n(-c2ccccc2)n1C -13.2% and -23.4%
Nc1nc2nc(Cl)[nH]c2c(=O)[nH]1 0.988%
O=S1(=O)CCOC[C@H](Cc2ccccc2)N1Cc1ccccc1Br -6.13%
Cc1nnc(C(C)C)n1C1C[C@H]2CC[C@@H](C1)N2CC[C@H](NC(=O)C1CCC(F)(F)CC1)c1ccccc1 (some centres not stated) -1.82%
O=C(Nc1ccc(Br)cc1)c1cc(Br)c(Br)s1 18.5%
OCc1c[nH]c2ccccc12 -21.7% and -24.1%
COC(=O)C1=C(C)NC(C)=C([N+](=O)[O-])[C@H]1c1ccccc1C(F)(F)F -35%
COc1ccc(CNC(=O)c2cnn(-c3nccc(-c4ccco4)n3)c2C)cc1OC -3.1%
CC(=O)NCc1c(I)c(NC(C)=O)c(I)c(C(=O)O)c1I 4.21%
COc1ccc(C(=O)C2C3C4COC(O4)C(=O)C3C3C=Cc4ccccc4N32)c(OC)c1 (configuration not stated) 11%
Cc1nc2cnc(N3CCNCC3)nc2n(CCC#N)c1=O -3.11%
CN1C(=O)CC[C@H]1c1cccnc1 20.4% and -18%
CC(C)N1CCN(c2ccc(OC[C@H]3CO[C@](Cn4cncn4)(c4ccc(Cl)cc4Cl)O3)cc2)CC1 -11.7%
CC[C@@]1(O)C[C@H](O[C@H]2C[C@H](N(C)C)[C@H](O[C@H]3C[C@H](O)[C@H](O[C@H]4CCC(=O)[C@H](C)O4)[C@H](C)O3)[C@H](C)O2)c2c(cc3c(c2O)C(=O)c2c(O)cccc2C3=O)[C@H]1C(=O)OC 26%
COC(=O)C[C@H]1c2ccccc2S(=O)(=O)N1c1ccc(N(C)C)cc1 -28.1%
Cc1ccc(O)c(C(CCN(C(C)C)C(C)C)c2ccccc2)c1 (configuration not stated) -15.1%
CO[C@@H]1[C@@H](O[C@@H]2O[C@H](C)[C@@H](O[C@H]3C[C@@](C)(O)[C@@H](OC(=O)CC(C)C)[C@H](C)O3)[C@H](N(C)C)[C@H]2O)[C@@H](CC=O)C[C@@H](C)C(=O)/C=C/C2OC2C[C@@H](C)OC(=O)C[C@H]1OC(C)=O (some centres not stated) 3.39%
COc1ccc(Oc2ncc3nc(C)c(=O)n(C4CC4)c3n2)cc1 14.5%
N#Cc1cccc(-c2nc3cnc(N4CCOCC4)nc3n(C[C@H]3CCCO3)c2=O)c1 -9.35%
CCOC(=O)c1ccccc1O 4.76% and 5.12%
COCC(C)NCc1cc2ccc(OC)cc2nc1N1CCN(c2ccc(F)cc2)CC1 (configuration not stated) -1.58%
Cc1noc(C)c1-c1ccc2ncnc(N3CCOCC3)c2c1 -2.61%
Cc1cc(O)c(C=O)c(O)c1C(=O)O -13.6%
O=c1c(-c2ccc(F)cc2)nc2cncnc2n1C1CC1 -18.9%
COc1ccc(CN2CC[C@H]3C=CC[C@@H](C(=O)N4CCOCC4)[C@H]3C2=O)cc1OC -1.06%
CCCCCCCCCC(=O)N[C@H](CN1CCOCC1)[C@H](O)c1ccccc1 -5.79%
CN1[C@@H]2CC[C@H]1CC(OC(=O)C(O)c1ccccc1)C2 (some centres not stated) -0.742% and 3.06% and -10.1%
O=C(c1ccncc1)N1CCC2(CCN(Cc3ccncc3)CC2)CC1 -5.7%
CC/C=C\C/C=C\C/C=C\CCCCCCCCCCCC(=O)O -1.27%
O=C(Nc1cccc(F)c1)N1CCCC2(CCN(C(=O)c3cc(C(F)(F)F)cc(C(F)(F)F)c3)CC2)C1 -29.3%
Nc1ncnc2c1ncn2[C@H]1O[C@H](CO)[C@@H](O)[C@@H]1O -30.4%
CC(C)[C@@H]1CC[C@@H](C)C[C@H]1OC(=O)c1ccccc1O 2.49%
COCc1c(C(=O)N2CCN(C3CCCCC3)CC2)cnn1-c1ncc(C)c(-c2cccs2)n1 -1.16%
O=C(c1ccncc1)N1CCC2(CC1)CN(C(c1ccccc1)c1ccccc1)C2 3.63%
COc1ccc(Cl)cc1N=Nc1ncc[nH]1 -19.3% and -12.5%
Cc1c(-c2ccc(O)cc2)nn(-c2ccc(O)cc2)c1-c1ccc(OCCN2CCCCC2)cc1 -6.37%
CCn1c(-c2ccccc2F)nc2cc(NC(C)=O)cc(C(=O)N(C)Cc3ccc4nccnc4c3)c21 4.22%
COC(=O)c1c(OCc2ccc(F)cc2)cc(=O)n2c1CCN(Cc1ccc3cccnc3c1)CC2 -2.07%
CN(C)C(=O)c1ccc(-c2nccc(Nc3ccc(F)cc3)n2)cc1 -17.9%
C[C@@H]1CN(Cc2ccc3c(c2)CN(Cc2cccn2-c2ccccn2)CCO3)C[C@H](C)O1 -10.2%
CCn1c(=O)[nH]c2cc(Cl)c(Cl)cc21 -16.2% and -14.2%
CCC(C)(Oc1ccc(C2(c3ccc(OC(C)(CC)C(=O)O)cc3)CCCCC2)cc1)C(=O)O (configuration not stated) -1.01%
COc1ccccc1CNc1ncncc1-c1ccccc1C(F)(F)F 1.19%
OCC1NCC(O)C(O)C1O (configuration not stated) -21.7%
CCN(CC)CC(=O)Nc1c(C)cccc1C 9.12% [middle of 4 runs]
COC(=O)CC1C(C)(C)C(=O)C2CC3=C(CC[C@]4(C)C3=CC(=O)OC4c3ccoc3)[C@@]1(C)C2=O (some centres not stated) -4.15%
Cc1ccc2ncc(C)c(/C=C/c3ccc(N(C)C)cc3)c2c1 -11.7%
O=C(c1cccc(F)c1)N1CCC2(CCCN(c3ccccn3)C2)CC1 3.46%
CC(=O)Nc1ccc(SC[C@H](C)CN2CC[C@H](O)CCC2=O)cc1 -17.2%
